One may read the IC50 as the point on the concentration scale where inhibition reaches its midpoint.

For 67 cell lines, AUC and IC50 results are on record in the supplement of paper PMC4967469.

IC50 is the fitted dose that halves viability relative to control wells, and lower means more sensitive; a limit (>, <) means that the fit lies beyond the doses tested. AUC is the area under the same curve over the 256-fold range up to the top dose, as a fraction; it is 1 without any effect and falls as sensitivity rises. Some results are limits rather than exact numbers.

Compound in this experiment: NC1(c2ccc(-c3nc4ccn5c(=O)[nH]nc5c4cc3-c3ccccc3)cc2)CCC1 [MK-2206]
Nature of the experiment: Viability of human cancer cell lines after 72 h of drug (GDSC screen). The method, then: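 Human cancer cell lines in 384-well plates, medium with 10% serum, drug for 72 h over a 256-fold dose range (nine 2-fold or five 4-fold steps up to the top dose). Adherent lines were fixed and stained with the nucleic acid dye Syto60, suspension lines read with resazurin; signal relative to control wells, capped at 0 and 100%. One two-parameter sigmoid per drug and line, fitted in a mixed model over all curves with the slope shared within a line.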

As for “LU-165 (small cell lung carcinoma, suspension, top dose 4 µM)”, the AUC worked out at 0.985 and the IC50 is > 4000 nM.
In the same order, the values of “LXF-289 (lung adenocarcinoma, adherent, top dose 4 µM)” are 0.655 and 666 nM.
The corresponding values for “LoVo (large intestine, adherent, top dose 4 µM)” are 0.712 and 1000 nM.
The corresponding values for M059J (glioma, adherent, top dose 4 µM) are 0.943 and > 4000 nM.
In the case of “MC116 (B-cell lymphoma, suspension, top dose 4 µM)”, the AUC worked out at 0.999 and the IC50 is > 4000 nM.
For the cell line “MC-CAR (haematopoietic neoplasm, suspension, top dose 4 µM)”, the AUC turned out to be 0.476 and the IC50 came to 216 nM.
In the same order, the values of “MC-IXC (neuroblastoma, adherent, top dose 4 µM)” are 0.942 and 3910 nM.
In the same order, the values of “MDA-MB-157 (breast, adherent, top dose 4 µM)” are 0.901 and > 4000 nM.
In the same order, the values of “MDA-MB-231 (breast, adherent, top dose 4 µM)” are 0.983 and > 4000 nM.
On to “MDA-MB-330 (breast, adherent, top dose 4 µM)”, for which the AUC was found to be 0.625 and the half-inhibitory concentration (IC50) came to 580 nM.
Regarding “MDA-MB-361 (breast, adherent, top dose 4 µM)”, the AUC came to 0.633.
Consider “MDA-MB-415 (breast, adherent, top dose 4 µM)”, for which the AUC came to 0.649 and the IC50 is 744 nM.
In the same order, the values of “MDA-MB-436 (breast, adherent, top dose 4 µM)” are 0.871 and > 4000 nM.
In the same order, the values of “MDA-MB-453 (breast, adherent, top dose 4 µM)” are 0.862 and > 4000 nM.
The corresponding values for “MDA-MB-468 (breast, adherent, top dose 4 µM)” are 0.866 and 3340 nM.
As for “MDST8 (large intestine, adherent, top dose 4 µM)”, the AUC was determined as 0.9 and the IC50 was > 4000 nM.
In the same order, the values of “ME-1 (acute myeloid leukaemia, suspension, top dose 4 µM)” are 0.987 and > 4000 nM.
The corresponding values for “ME-180 (cervix, adherent, top dose 4 µM)” are 0.537 and 317 nM.
In the same order, the values of “MEG-01 (chronic myeloid leukaemia, suspension, top dose 4 µM)” are 0.957 and > 4000 nM.
Regarding “MEL-HO (melanoma, adherent, top dose 4 µM)”, the AUC turned out to be 0.863 and the IC50 came to 3510 nM.
In the same order, the values of “MEL-JUSO (melanoma, adherent, top dose 4 µM)” are 0.787 and 1970 nM.
The corresponding values for “MES-SA (uterus, adherent, top dose 4 µM)” are 0.878 and 3050 nM.
For “MFE-280 (endometrium, adherent, top dose 4 µM)”, the AUC is 0.789 and the IC50 stood at 2300 nM.
In the same order, the values of “MFE-296 (endometrium, adherent, top dose 4 µM)” are 0.719 and 1100 nM.
With “MFH-ino (soft tissue, adherent, top dose 4 µM)”, the AUC turned out to be 0.733 and the IC50 was 1320 nM.
Turning to “MFM-223 (breast, adherent, top dose 4 µM)”, the AUC stood at 0.668 and the IC50 amounted to 727 nM.
In the same order, the values of “MG-63 (osteosarcoma, adherent, top dose 4 µM)” are 0.884 and > 4000 nM.
For “MHH-CALL-2 (B-cell leukaemia, suspension, top dose 4 µM)”, the AUC came out at 0.996 and the IC50 was > 4000 nM.
The corresponding values for “MHH-ES-1 (Ewing sarcoma, adherent, top dose 4 µM)” are 0.822 and 2290 nM.
The corresponding values for “MHH-NB-11 (neuroblastoma, adherent, top dose 4 µM)” are 0.921 and > 4000 nM.
The corresponding values for “MHH-PREB-1 (B-cell leukaemia, suspension, top dose 4 µM)” are 0.815 and 1920 nM.
Take “MIA-PaCa-2 (pancreas, adherent, top dose 4 µM)”: the AUC was 0.733 and the IC50 is 1250 nM.
In the same order, the values of MKN7 (stomach, adherent, top dose 4 µM) are 0.949 and > 4000 nM.
In the same order, the values of “MKN28 (stomach, adherent, top dose 4 µM)” are 0.862 and 3570 nM.
The corresponding values for “ML-2 (acute myeloid leukaemia, suspension, top dose 4 µM)” are 0.981 and > 4000 nM.
Turning to “MLMA (hairy cell leukaemia, semi-adherent, top dose 4 µM)”, the AUC turned out to be 0.807 and the IC50 amounted to 2070 nM.
In the same order, the values of “MM1S (myeloma, suspension, top dose 4 µM)” are 0.421 and 154 nM.
In the same order, the values of “MN-60 (B-cell leukaemia, suspension, top dose 4 µM)” are 0.977 and > 4000 nM.
The corresponding values for “MOG-G-CCM (glioma, adherent, top dose 4 µM)” are 0.816 and 2700 nM.
As to “MOG-G-UVW (glioma, adherent, top dose 4 µM)”, the AUC turned out to be 0.898 and the half-inhibitory concentration (IC50) was > 4000 nM.
With “MOLM-13 (acute myeloid leukaemia, suspension, top dose 4 µM)”, the AUC is 0.865 and the 50% inhibitory concentration (IC50) worked out at 3160 nM.
The corresponding values for “MOLM-16 (acute myeloid leukaemia, suspension, top dose 4 µM)” are 0.483 and 226 nM.
The corresponding values for “MOLP-8 (myeloma, suspension, top dose 4 µM)” are 0.739 and 1170 nM.
The corresponding values for “MOLT-4 (lymphoblastic leukaemia, suspension, top dose 4 µM)” are 0.524 and 286 nM.
Regarding “MOLT-13 (T-cell lymphoblastic leukaemia, suspension, top dose 4 µM)”, the AUC turned out to be 0.972 and the half-maximal inhibitory concentration (IC50) was > 4000 nM.
With “MOLT-16 (T-cell lymphoblastic leukaemia, suspension, top dose 4 µM)”, the AUC is 0.535 and the IC50 was 306 nM.
The corresponding values for “MONO-MAC-6 (acute myeloid leukaemia, suspension, top dose 4 µM)” are 0.714 and 1050 nM.
As for “MPP-89 (mesothelioma, adherent, top dose 4 µM)”, the AUC was 0.934 and the IC50 was > 4000 nM.
With “MRK-nu-1 (breast, suspension, top dose 4 µM)”, the AUC is 0.99 and the IC50 is > 4000 nM.
The corresponding values for MS751 (cervix, adherent, top dose 4 µM) are 0.975 and > 4000 nM.
The corresponding values for “MS-1 (small cell lung carcinoma, suspension, top dose 4 µM)” are 0.963 and > 4000 nM.
As to “MSTO-211H (mesothelioma, adherent, top dose 4 µM)”, the AUC worked out at 0.878 and the IC50 amounted to 3400 nM.
Turning to “MV-4-11 (leukaemia, suspension, top dose 4 µM)”, the AUC was 0.832 and the IC50 turned out to be 1950 nM.
For the cell line “MY-M12 (leukaemia, suspension, top dose 4 µM)”, the AUC is 0.755 and the IC50 was determined as 1520 nM.
For the cell line “MZ1-PC (pancreas, adherent, top dose 4 µM)”, the AUC was found to be 0.955 and the IC50 is > 4000 nM.
In the same order, the values of “MZ2-MEL (melanoma, adherent, top dose 4 µM)” are 0.664 and 779 nM.
In the same order, the values of “MZ7-mel (melanoma, adherent, top dose 4 µM)” are 0.973 and > 4000 nM.
The corresponding values for “Mo-T (hairy cell leukaemia, suspension, top dose 4 µM)” are 0.552 and 347 nM.
As to “NALM-6 (B-cell leukaemia, suspension, top dose 4 µM)”, the AUC amounted to 0.699.
Turning to “NAMALWA (Burkitt lymphoma, suspension, top dose 4 µM)”, the AUC worked out at 0.816 and the IC50 was 1790 nM.
For “NB1 (neuroblastoma, semi-adherent, top dose 4 µM)”, the AUC amounted to 0.612 and the concentration for half-maximal inhibition (IC50) is 527 nM.
The corresponding values for “NB5 (neuroblastoma, adherent, top dose 4 µM)” are 0.842 and 2850 nM.
The corresponding values for “NB6 (neuroblastoma, adherent, top dose 4 µM)” are 0.981 and > 4000 nM.
In the same order, the values of “NB7 (neuroblastoma, adherent, top dose 4 µM)” are 0.912 and > 4000 nM.
As to “NB10 (neuroblastoma, adherent, top dose 4 µM)”, the AUC amounted to 0.975 and the IC50 is > 4000 nM.
On to “NB12 (neuroblastoma, adherent, top dose 4 µM)”, for which the AUC stood at 0.843 and the IC50 is > 4000 nM.
The corresponding values for “NB13 (neuroblastoma, adherent, top dose 4 µM)” are 0.947 and > 4000 nM.
